In ChEMBL document CHEMBL1275443, “Functional diversity among metallo-beta-lactamases: characterization of the CAR-1 enzyme of Erwinia carotovora” (2008):

What was measured:
Conditions in all cases: Fluoribacter gormanii
[1] = substrate: CC(=O)OCC1=C(C(=O)O)N2C(=O)[C@@H](NC(=O)Cc3cccs3)[C@H]2SC1; experiment: (§1) Ratio of Kcat to Km for Legionella gormanii ATCC 33297T beta-Lactamase FEZ-1
[2] = substrate: CC(C)(O/N=C(\C(=O)N[C@@H]1C(=O)N2C(C(=O)[O-])=C(C[n+]3ccccc3)CS[C@H]12)c1csc(N)n1)C(=O)O; experiment: as §1
[3] = substrate: CC1(C)S[C@@H]2[C@H](NC(=O)Cc3ccccc3)C(=O)N2[C@H]1C(=O)O; experiment: as §1
[4] = substrate: CO/N=C(\C(=O)N[C@@H]1C(=O)N2C(C(=O)[O-])=C(C[N+]3(C)CCCC3)CS[C@H]12)c1csc(N)n1; experiment: as §1
[5] = substrate: CO[C@@]1(NC(=O)Cc2cccs2)C(=O)N2C(C(=O)O)=C(COC(N)=O)CS[C@@H]21; experiment: as §1
[6] = substrate: CO/N=C(\C(=O)N[C@@H]1C(=O)N2C(C(=O)O)=C(COC(C)=O)CS[C@H]12)c1csc(N)n1; experiment: as §1
[7] = substrate: CC1(C)S[C@@H]2[C@H](NC(=O)[C@H](N)c3ccccc3)C(=O)N2[C@H]1C(=O)O; experiment: as §1
[8] = substrate: CO/N=C(\C(=O)N[C@@H]1C(=O)N2C(C(=O)O)=C(COC(N)=O)CS[C@H]12)c1ccco1; experiment: as §1
[9] = substrate: CO[C@@]1(NC(=O)C(C(=O)O)c2ccsc2)C(=O)N2[C@@H](C(=O)O)C(C)(C)S[C@@H]21; experiment: as §1
[10] = substrate: CC1(C)S[C@@H]2[C@H](NC(=O)[C@H](C(=O)O)c3ccsc3)C(=O)N2[C@H]1C(=O)O; experiment: as §1
[11] = substrate: CCN1CCN(C(=O)N[C@@H](C(=O)N[C@@H]2C(=O)N3[C@@H]2SC(C)(C)[C@@H]3C(=O)O)c2ccccc2)C(=O)C1=O; experiment: as §1

B1: FEZ-1 protein (Fluoribacter gormanii), Q9K578 (protein)
chain: MKKVLSLTALMMVLNHSSFAYPMPNPFPPFRIAGNLYYVGTDDLASYLIVTPRGNILINSDLEANVPMIKASIKKLGFKFSDTKILLISHAHFDHAAGSELIKQQTKAKYMVMDEDVSVILSGGKSDFHYANDSSTYFTQSTVDKVLHDGERVELGGTVLTAHLTPGHTRGCTTWTMKLKDHGKQYQAVIIGSIGVNPGYKLVDNITYPKIAEDYKHSIKVLESMRCDIFLGSHAGMFDLKNKYVLLQKGQNNPFVDPTGCKNYIEQKANDFYTELKKQETA
[1]
  kcat/Km: 2.5 ×10⁶ /M/s
[2]
  kcat/Km: 4 ×10³ /M/s
[3]
  kcat/Km: 1.1 ×10⁵ /M/s
[4]
  kcat/Km: 6 ×10³ /M/s
[5]
  kcat/Km: 2.7 ×10⁵ /M/s
[6]
  kcat/Km: 2.4 ×10⁶ /M/s
[7]
  kcat/Km: 1.1 ×10⁴ /M/s
[8]
  kcat/Km: 6.6 ×10⁶ /M/s
[9]
  kcat/Km: 1.3 ×10⁴ /M/s
[10]
  kcat/Km: 1.3 ×10⁴ /M/s
[11]
  kcat/Km: 1.2 ×10⁴ /M/s
